# Data published in PMC4336329 (PLoS ONE, 2015).
# Screen size: about 310,000 compounds; about 14,000 (4.5%) showed an effect of 50% or more. Effects have a minus sign here. The list shows a part of the results.
# Molecular target: human ether-à-go-go-related gene (hERG) potassium channel (human, UniProt Q12809)
# Test: primary screen, population patch clamp on CHO cells stably expressing hERG
# 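Further: peak tail current of the secondary pulse compared with the same well before compound.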
# human ether-à-go-go-related gene (hERG) potassium channel, sequence (Q12809 whole entry, looked up): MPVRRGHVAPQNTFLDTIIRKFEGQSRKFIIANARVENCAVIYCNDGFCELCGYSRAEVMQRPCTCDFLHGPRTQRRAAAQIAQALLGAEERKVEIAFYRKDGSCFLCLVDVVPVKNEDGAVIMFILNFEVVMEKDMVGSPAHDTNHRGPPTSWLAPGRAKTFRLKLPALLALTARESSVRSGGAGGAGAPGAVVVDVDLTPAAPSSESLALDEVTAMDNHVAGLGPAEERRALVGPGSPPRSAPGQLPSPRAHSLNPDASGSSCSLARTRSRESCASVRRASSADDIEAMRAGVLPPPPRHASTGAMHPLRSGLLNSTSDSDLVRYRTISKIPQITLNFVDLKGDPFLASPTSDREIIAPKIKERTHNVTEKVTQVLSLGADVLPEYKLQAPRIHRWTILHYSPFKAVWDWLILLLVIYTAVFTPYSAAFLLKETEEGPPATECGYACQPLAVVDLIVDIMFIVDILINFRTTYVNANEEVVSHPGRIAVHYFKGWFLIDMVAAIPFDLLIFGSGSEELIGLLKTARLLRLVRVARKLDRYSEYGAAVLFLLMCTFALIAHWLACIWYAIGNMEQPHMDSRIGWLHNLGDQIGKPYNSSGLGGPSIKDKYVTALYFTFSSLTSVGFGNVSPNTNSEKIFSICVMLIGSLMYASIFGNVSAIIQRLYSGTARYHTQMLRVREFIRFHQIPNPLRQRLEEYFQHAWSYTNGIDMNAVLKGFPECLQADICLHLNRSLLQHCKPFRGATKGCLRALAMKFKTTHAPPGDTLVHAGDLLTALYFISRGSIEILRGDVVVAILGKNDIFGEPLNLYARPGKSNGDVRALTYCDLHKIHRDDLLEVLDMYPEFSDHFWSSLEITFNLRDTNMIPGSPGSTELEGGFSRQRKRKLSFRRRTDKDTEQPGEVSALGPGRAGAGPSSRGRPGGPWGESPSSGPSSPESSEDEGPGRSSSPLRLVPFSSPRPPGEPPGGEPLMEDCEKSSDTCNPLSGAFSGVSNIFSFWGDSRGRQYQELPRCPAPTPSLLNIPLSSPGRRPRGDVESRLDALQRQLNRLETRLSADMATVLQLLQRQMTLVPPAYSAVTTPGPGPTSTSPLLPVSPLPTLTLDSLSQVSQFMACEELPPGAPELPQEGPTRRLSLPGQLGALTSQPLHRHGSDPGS
row,SMILES,"hERG current change (%, negative = inhibition) at 10uM [%]"
1,CCOc1ccc(C(C)=O)cc1COc1cccnc1[N+](=O)[O-],0.534
2,CCN1C(=O)S/C(=C\c2ccc(N3CCOCC3)cc2C)C1=O,-19.7
3,CCOC(=O)C1=C(C)NC(C)=C(C(=O)OCC)C1c1ccco1,2.36
4,O=S(=O)(NCc1ccco1)c1ccc(S(=O)(=O)N2CCCC2)cc1,6.87
5,Cc1cc(C)c2c(=O)[nH]c(SCC(=O)N3CCCCC3)nc2n1,-5.61
6,O=C1OCc2nc3cc4c(cc3c(-c3ccc(F)cc3)c21)OCO4,23.6
7,CN1C(=O)c2cccc3c(S(=O)(=O)NCCc4ccccc4)ccc1c23,-27
8,O=C(CCCCl)Nc1nc(-c2ccc3c(c2)OCCO3)cs1,9.6
9,N#Cc1ccc(S(=O)(=O)N2CCN(C(=O)C3CC(=O)N(c4ccc5c(c4)OCCO5)C3)CC2)cc1 (centres unmarked),-38.8
10,C=CCn1c(SCC(=O)NCC)nnc1-c1cc2c(s1)CCC(CC)C2 (centres unmarked),-24
11,CCN(CC)C(=O)C(=O)c1cccn1-c1ccc(C#N)cc1,-18.8
12,CC(=O)c1ccc(N2CCN(CC(=O)Nc3ccc(N4CCOCC4)cc3)CC2)cc1,-2.34
13,O=C(CSc1ccsc1[N+](=O)[O-])N1CCN(c2ccccc2)CC1,2.71
14,O=C(CCc1ccc(S(=O)(=O)NCc2ccccc2)cc1)N1CCN(Cc2ccc3c(c2)OCO3)CC1,-41.2
15,COc1cc(CN2CCC(n3nccc3NC(=O)c3ccc4c(c3)OCO4)CC2)ccc1O,-6.7
16,Cc1ccc(C)c(Sc2ccc(S(=O)(=O)Nc3ccc(C(=O)O)cc3)cc2)c1,-0.837
17,Cc1ccc(Cl)cc1N1CCN(S(=O)(=O)c2c(C)[nH]c(C)c2C(=O)N2CCCC2)CC1,-6.84
18,C/C=C(\C)C(=O)N1CCC(C(=O)c2ccccc2)CC1,12.3
19,COc1ccc(NC(=S)Nc2ccccn2)c(OC)c1,20.4
20,c1ccc2c(c1)oc1c(NCc3ccc4c(c3)OCO4)ncnc12,4.7
21,CC(C)Nc1nc(Cl)nc(NNC(=O)C(C)Oc2ccccc2)n1 (centres unmarked),4.76
22,Cc1n[nH]c(C)c1S(=O)(=O)N1CCc2ccccc21.Cl,3.24
23,CCCCn1c(SCC(=O)NNC(=O)c2ccco2)nnc1-c1ccco1,4

row,SMILES,"hERG current change (%, negative = inhibition) at 10uM [%]"
1,CC(C)(C)C(=O)Nc1ccc(Oc2ccc3c(c2)C(=O)N(c2ccc(O)cc2)C3=O)cc1,-14.2
2,Cc1cc(C)nc(N2CCCC(C(=O)NCCC3=CCCCC3)C2)n1 (centres unmarked),-3.18
3,Cc1nc2c(C(=O)N3CCN(c4ccccn4)CC3)cnn2c(C)c1Cc1cccc(Cl)c1,-43.4
4,c1ccc(-c2noc(-c3ccc4ccccc4c3)n2)nc1,16.5
5,O=C1c2ccccc2C(Nc2ccc(S(=O)(=O)N3CCCCCC3)cc2)N1c1ccccn1 (centres unmarked),10.3
6,O=C(O)Cc1cc2c(s1)CCCCC2,29.5
7,Cc1cc(N2CCCC2)ccc1NC(=O)CN1C(=O)NC(C)(c2ccccc2)C1=O (centres unmarked),4.86
8,Cc1ccccc1C(=O)Nc1cccc(C(=O)N/N=C/c2ccccn2)c1,10.9
9,Cn1c(=O)[nH]c(=O)c2c1nc(N1CCCCC1)n2CC(O)COc1ccc([N+](=O)[O-])cc1 (centres unmarked),-69.8
10,CCc1cc(=O)oc2c(C)c(OS(C)(=O)=O)ccc12,-10.4
11,CC(=O)c1cc2c(cc1NS(=O)(=O)c1ccc(F)cc1)OCO2,43
12,COC(=O)c1ccc(N=Cc2c(-c3ccccc3)[nH][nH]c2=O)cc1,29.1
13,COc1cc2c(cc1OC)CN(c1ccc(C(F)(F)F)cn1)CC2,15.9
14,CCN(C(=O)Cc1c(C(=O)O)n(C)c2ccccc12)c1cccc(C)c1,13.1
15,Cc1cc(-n2c(C)cc(C(=O)COc3ccccc3[N+](=O)[O-])c2C)no1,-4.91
16,Cc1ccccc1CN1CCN(c2nc3ccccc3s2)CC1,16.8
17,Cl.Nc1c(Br)cc(Br)cc1CNC1CCC(O)CC1 (centres unmarked),-9.72
18,Cc1cccc(NC(=O)c2cnc3n(c2=O)CCS3)c1,-13.5
19,CCC(=O)Nc1nonc1-c1nc2ccccc2n1CC(C)C,-2.85
20,O=C(NCC1(c2ccccc2)CCCC1)c1ccc(Br)cc1,-6.15
21,Cc1ccccc1Cn1nnc(-c2cccc(C(=O)O)c2)n1,-7.2
22,COC(=O)c1cn(C(=O)c2cccc(Br)c2)c2ccccc12,1.86
23,CCOc1cc(C(=O)NCc2nnc(SCC(=O)OC)n2C)cc(OCC)c1OCC,3.23

row,SMILES,"hERG current change (%, negative = inhibition) at 10uM [%]"
1,NC(=O)CC(NC(=O)Cc1ccc(Br)cc1)c1ccc(N2CCC(N3CCCCC3)CC2)c([N+](=O)[O-])c1 (centres unmarked),13.6
2,Oc1cccc(/C=N/N2CCCCC2)c1O,-1.12
3,Nc1nonc1C(=O)NCCNC(=O)c1ccccc1F,4.12
4,COC(=O)C1=C(Nc2ccc(C)cc2)C=C(C)C(C(=O)OC)C1c1cccc(OC)c1 (centres unmarked),-1.3
5,COc1cccc(Nc2nnc(Cc3cccnc3)c3ccccc23)c1,-75.8
6,CCOC(=O)N1CCN(CC(O)COc2ccccc2C(C)C)CC1.Cl (centres unmarked),-8.87
7,Cn1nc(C(C)(C)C)cc1C(=O)NNC(=O)c1cccc(Cl)c1,12.8
8,C[C@H]1CCC[C@@]2(O[C@@H](CCO)C[C@H](O)[C@H]2O)O1,16
9,COc1ccc(CC(=O)NCCc2ccc(S(N)(=O)=O)cc2)cc1,16.5
10,COC(=O)c1cccc(N(CC(=O)NC2CCCC2)C(=O)CNC(=O)c2cccs2)c1,-1.26
11,c1ccc(OCc2nc3c4c(ncn3n2)-c2ccccc2CC42CCCC2)cc1,0.954
12,CN(CC(=O)N1CCN(c2ccccn2)CC1)S(=O)(=O)c1ccccc1,-12.8
13,CC(OC(=O)C1CCC(=O)N1)C(=O)Nc1cc(Cl)cc(Cl)c1 (centres unmarked),2.72
14,COCCCNCCOc1ccc(C(C)(C)c2ccccc2)cc1.O=C(O)C(=O)O,-54.5
15,COc1ccccc1CCNC(=O)c1cnccn1,-3.36
16,O=C(CSc1cccc[n+]1[O-])c1ccc(Cl)s1,10.8
17,O=C(NCc1ccc2[nH]c3c(c2c1)CCCC3)N1CCOCC1,1.35
18,CC(NC(=O)Cn1nc(C(F)(F)F)c2c1CCC2)c1ccccc1 (centres unmarked),-5.6
19,COC(=O)C1=C(C)Nc2nnnn2C1c1ccco1 (centres unmarked),-7.62
20,O=C(CC1(O)C(=O)Nc2ccccc21)c1ccccc1O (centres unmarked),7.03
21,Cc1cccc2cc(CN(C(=O)c3cccc([N+](=O)[O-])c3)C(C)C)c(=O)[nH]c12,5.02
22,CC(=O)N1CCN(c2ccc(S(=O)(=O)N3CCCCC3)cn2)CC1,-29.7
23,COc1cc(/C=C/CN2CCN(CCC(C)C)C(CCO)C2)ccc1O (centres unmarked),23

row,SMILES,"hERG current change (%, negative = inhibition) at 10uM [%]"
1,O=C(COc1ccccc1)Nc1ncn[nH]1,-8.43
2,O=C(O)c1ccc(COc2ccc(CO)cc2Cl)cc1,-1.15
3,COc1ccc(Cl)cc1NC(=O)C(C)N1CCN(c2ccccn2)CC1 (centres unmarked),-18.3
4,NC1=NC[C@H](c2ccccc2)N1CCc1cc(C(F)(F)F)cc(C(F)(F)F)c1,-14.4
5,CCCSC1=C(C#N)C(c2ccc(OC)cc2)C2=C(CC(C)(C)CC2=O)N1 (centres unmarked),0.681
6,COc1ccccc1C(=O)NNC(=O)c1cccc(Br)c1,6.42
7,Cc1ccc(CN2C(=O)[C@H]3Cc4c([nH]c5ccccc45)C(C)(C)N3C2=O)cc1,15.7
8,CCOC(=O)/C(C#N)=C/c1c[nH]c2ccccc12,-0.909
9,O=C(CCc1ccccn1)NC1CCCc2c1cnn2-c1ccc(F)cc1F (centres unmarked),3.18
10,NC(=O)c1coc(-c2ccccc2)n1,12.9
11,CCN1CCOC(CC(=O)Nc2cccc([N+](=O)[O-])c2)C1=O (centres unmarked),-1.35
12,CCC(C(=O)OCC(=O)Nc1cc(Cl)cc(Cl)c1)c1ccccc1 (centres unmarked),29.9
13,COc1ccc(NC(=O)CSc2cc(C(=O)c3nccn3C)c3ccccc3n2)cc1,-10.7
14,O=C1CC[C@H](O)CCN1[C@H](CSc1ccccc1)Cc1ccccc1,-21.7
15,CC(OC(=O)c1ccncc1)C(=O)Nc1ccc([N+](=O)[O-])cc1Cl (centres unmarked),-32.2
16,O=C(NC(=S)Nc1ccc(Cl)cc1Cl)C1CC1,3.44
17,CCCCCCCN1CCC(=O)N([C@H](CO)c2ccccc2)CC1,-63.7
18,Cc1cc(C(=O)OCC(=O)NCc2ccco2)c(C)n1-c1ccccc1,6.07
19,COCCN(C(=S)Nc1cccc(C)c1)C(C)c1cccnc1 (centres unmarked),-4.61
20,Cc1cc(C)cc(S(=O)(=O)c2cn(C)c3cc(N4CCN(C)CC4)c(F)cc3c2=O)c1,-11.5
